# B1: hz28G3-1.3-DDDXd: anti-CLDN18.2 antibody hz28G3-1.3 conjugated with compound H (MC-GGFG-DDDXd); DAR 7.4 (Example 3), 7.6 (Example 5), 7.93 (Example 16) (conjugate)
# heavy: QVQLVQSGAEVKKPGASVKVSCKTSGYSFTDYLMLWVRQAHGQSLEWMGNINPYYGRTTYALKFKGRVTMTVDRSTSTVYMELSSLRSEDTAVYYCARDGYSLRNAMDYWGQGTLVTVSS[human IgG1 constant region left out here]
# light: DIVMTQSPDSLAVSLGERATINCKSSQSLFNSGNQKNYLAWYQQKPGQPPKLLIYGASTRESGVPDRFSGSGSGTDFTLTISSLQAEDVAVYYCQNAHSYPYTFGQGTKVEIKRTVAAPSVFIFPPSDEQLKSGTASVVCLLNNFYPREAKVQWKVDNALQSGNSQESVTEQDSKDSTYSLSSTLTLSKADYEKHKVYACEVTHQGLSSPVTKSFNRGEC
# Experiments:
# [1] = test system: NUGC-4 human gastric cancer cells; assay: Pharmacodynamic evaluation in mouse xenograft tumor model of NUGC-4 human gastric cancer; assay type: in vivo, CB-17 SCID mice; settings: NUGC-4 xenograft
# Procedure: NUGC-4 human gastric cancer cells were subcutaneously inoculated in the right axilla of SPF-grade female CB-17 SCID mice (source: Shanghai Lingchang Biotech Co., Ltd.) at 5 × 10^6/mouse. When the mean tumor volume reached about 150 mm^3, the animals were divided into 3 groups of 6 animals each, with the specific groups and doses shown in Table 7. Both hz28G3-1.3-DDDXd and 15F9-DDDXd were prepared in Example 3. After the determination of the DAR value according to Example 4, the DAR value of hz28G3-1.3-DDDXd was 7.4, and the DAR value of 15F9-DDDXd was 7.7. Table 7. Groups and doses
# The day of grouping was day 0, and the tail vein administration was performed once on day 2 after grouping. The tumor volume was measured 2-3 times a week, and meanwhile, the mice were weighed and the data were recorded. The general behavior of the mice was observed and recorded every day. After the experiment was completed, the tumors were removed, weighed, and photographed.
# The detection indexes and the calculation formulas are as follows: • Tumor volume TV (mm^3) = 1/2 × (a × b^2), where a represents the long diameter of the tumor, and b represents the short diameter of the tumor; • Relative tumor volume RTV = TVt/TV0, where TV0 represents the tumor volume on day 0, and TVt represents the tumor volume at each measurement; • Relative tumor proliferation rate T/C (%) = (TRTV/CRTV) × 100%, where TRTV represents RTV of the treatment group, and CRTV represents RTV of the vehicle control group; • Tumor growth inhibition rate TGI (%) = (1 - TW/TW0) × 100%; where TW represents the tumor weight of the treatment group, and TW0 represents the tumor weight of the vehicle control group; • Weight change rate WCR (%) = (Wtt - Wt0)/Wt0 × 100%, where Wt0 represents the body weight of the mouse on day 0, and Wtt represents the body weight of the mouse at each measurement.
# [2] = Aggregate verification by gel (SEC) chromatography; assay type: physicochemical; settings: peak area percentage, 280 nm, ADCs prepared in Example 3
# Procedure: Components of the anti-CLDN18.2 antibody-drug conjugates prepared in Example 3 were separated using a gel chromatographic column. Elution was performed using a neutral buffer containing 10% isopropanol as the mobile phase. The components were eluted sequentially in descending order according to their molecular weights. The gel chromatographic column used was an ACQUITY UPLC Protein BEH SEC Column 200Å, 1.7 µm, 4.6 × 300 mm, and the column temperature was 25 °C. The mobile phase was 50 mM phosphate buffered saline-200 mM sodium chloride-10% isopropanol at pH 7.0 (12.53 g of disodium hydrogen phosphate dodecahydrate, 2.33 g of sodium dihydrogen phosphate dihydrate, and 11.69 g of sodium chloride were weighed, about 800 mL of ultrapure water was added, and the mixture was stirred until complete dissolution; 100 mL of isopropanol was added, ultrapure water was added to bring the volume to 1000 mL, and the mixture was mixed uniformly and then filtered through a 0.22 µm filter). 20 µg of the anti-CLDN18.2 antibody conjugates were precisely taken and injected into a liquid chromatograph, and the detection was performed at the wavelength of 280 nm. The flow rate was 0.3 mL/min, and isocratic elution was performed for 15 min.
# Data were processed, and the results were quantitatively analyzed using the area normalization method. The peak area percentages of the aggregate, the monomer, and the low molecular weight impurities of the anti-CLDN18.2 antibody-drug conjugates were calculated. The aggregate peak appeared before the main peak, the monomer peak was the main peak, and the low molecular weight impurity peaks appeared after the main peak. The content proportions of the monomer, the aggregate, and the low molecular weight impurities of the anti-CLDN18.2 antibody-drug conjugates are shown in Table 1. Table 1. The content proportions of the monomer, the aggregate, and the low molecular weight impurities of the anti-CLDN18.2 antibody-drug conjugates
# [3] = 10 mg/kg tail vein once on day 2, day 33
molecule,measurement,setting,value
B1,toxicity,[1]; 10 mg/kg,no significant toxicity
same,RTV (mean±SD),[1]; [3],1.5±0.6
same,TV (mean±SD),[1]; [3],260±131 mm^3
same,Weight change rate (mean ± SD),[1]; [3],11.1±2.7%
same,TGI,"[1]; 10 mg/kg tail vein once on day 2, day 33, from tumor weight",86.7%
same,T/C,"[1]; 10 mg/kg tail vein once on day 2, day 33, relative tumor proliferation rate",14.7%
same,Aggregate,[2],0.54%
same,Low molecular weight impurities,[2],0.10%
same,Monomer,[2],99.36%
